The text below walks through data of publication PMC6212790.

The other results are listed elsewhere or left out. At the low end of the ranking the order means little.

The experiment addresses T1, GST-Rok (full length) (UniProt O34857).
T1 sequence: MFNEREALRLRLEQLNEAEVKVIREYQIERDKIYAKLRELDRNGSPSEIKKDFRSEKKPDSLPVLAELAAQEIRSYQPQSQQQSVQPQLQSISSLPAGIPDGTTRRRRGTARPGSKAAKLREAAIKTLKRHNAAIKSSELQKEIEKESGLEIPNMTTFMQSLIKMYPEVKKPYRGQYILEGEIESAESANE
The experiment can be described thus: protein binding microarray.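 Further: rank score from −0.5 (least bound) to 0.5 (best bound).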 The note with it: Rok is a gene silencer of Bacillus subtilis; high values mean tight binding; most listed sequences are background and not binding sites; double strand, one strand shown.
For TCGCGAGA, the binding signal turned out to be 0.123 E-score.
The result for ATACTCAA reads 0.198 E-score.
Regarding CAACTTTC, the binding signal worked out at 0.15 E-score.
Turning to AAAAGGTT, the binding signal was -0.148 E-score.
With AAACAGCG, the binding signal was -0.192 E-score.
For AACTATGA, the binding signal amounted to 0.285 E-score.
The result for TGTTCGAA reads 0.101 E-score.
In the case of AGAGGACC, the binding signal is -0.246 E-score.
Regarding ACGAGATC, the binding signal was -0.067 E-score.
As for AAACCCTA, the binding signal was -0.0129 E-score.
Turning to CATTCACC, the binding signal was -0.0704 E-score.
For the sequence GAAACGGC, the binding signal was -0.103 E-score.
In the case of ACAACTCG, the binding signal is 0.0439 E-score.
To AGTGGAAA belongs 0.0158 E-score.
Consider AAGAGCTA, for which the binding signal was determined as 0.104 E-score.
For TCTCTCCA, the binding signal is -0.234 E-score.
Turning to AGTAATCC, the binding signal was -0.000301 E-score.
The result for CCTGAATA reads 0.175 E-score; that for CCTCAGGA, -0.32 E-score; that for CATACAAG, 0.0872 E-score.
The result for CGCGTCAC reads -0.12 E-score; that for GATACGAA, 0.138 E-score; that for TCCAACCA, -0.11 E-score.
For the sequence ACGTGGAG, the binding signal is -0.074 E-score.
On to GCAGACCA, for which the binding signal was -0.276 E-score.
As to TCGTCACA, the binding signal was found to be 0.118 E-score.
As to CGTATTAA, the binding signal worked out at 0.157 E-score.
Regarding ACAAGGAG, the binding signal is -0.286 E-score.
Regarding ATCGCAGA, the binding signal was -0.0847 E-score.
Take ATGTCCAA: the binding signal was found to be 0.0904 E-score.
The result for AAAGAACG reads 0.0177 E-score; that for GATCCTAA, -0.0892 E-score.
CTTCTGCC: the binding signal is -0.311 E-score.
On to ATAACATG, for which the binding signal was 0.152 E-score.
As for GTACCTGA, the binding signal stood at 0.102 E-score.
As for ATGTCGGC, the binding signal stood at 0.0255 E-score.
GATCACTA registered a binding signal of 0.0769 E-score.
For the sequence AAGGAGCA, the binding signal is -0.295 E-score.
As for AACTACGA, the binding signal was 0.292 E-score.
Sequence ACATTTTG displayed a binding signal of 0.18 E-score.
With AGGCAGTG, the binding signal is -0.302 E-score.
The sequence CAGAATTA had a binding signal of 0.0718 E-score.
For CAGCAGTC, the binding signal turned out to be 0.0125 E-score.
As for TGTGTAAA, the binding signal is 0.0793 E-score.
GCAGGGAC: the binding signal is -0.315 E-score.
With AAACGCGG, the binding signal is -0.0383 E-score.
Turning to CCTAAGCG, the binding signal is -0.17 E-score.
Regarding GATAGTCA, the binding signal is 0.0302 E-score.
On to CGAGAGGC, for which the binding signal was -0.317 E-score.
As for CTCCAAAG, the binding signal was -0.248 E-score.
As for AAGTGGGG, the binding signal is -0.288 E-score.
GTAGTTCA came in with a binding signal of 0.217 E-score.
For GAGACCGC, the binding signal was -0.268 E-score.
As for ACTGCCTG, the binding signal was -0.0375 E-score.
To CAGTCCTA belongs 0.123 E-score; to CTTCGTTC, -0.277 E-score.
Turning to GCGCGAGC, the binding signal is -0.127 E-score.
Take AAACAGGG: the binding signal was -0.0541 E-score.
Take CAACGGCC: the binding signal is -0.217 E-score.
The result for AATCGATG reads 0.06 E-score; that for GACGTACA, 0.202 E-score; that for CGGGCTCA, -0.321 E-score.
The sequence CGAATAGA gave a binding signal of 0.127 E-score.
Consider CATGACAA, for which the binding signal stood at 0.0877 E-score.
For the sequence AGTCAGAG, the binding signal was -0.175 E-score.
Take ATGAACCG: the binding signal was -0.0944 E-score.
On to ATATACGC, for which the binding signal was 0.213 E-score.
The result for GATAAATC reads 0.186 E-score.
To GCATATCA belongs 0.0288 E-score.
Take ACACTGGA: the binding signal is -0.0856 E-score.
As for AACCGGAA, the binding signal is -0.207 E-score.
To TCCAAAGA belongs -0.105 E-score; to CAGATGAA, 0.026 E-score; to GGTATGAC, -0.0448 E-score.
As for GCCGTAGA, the binding signal came out at 0.0518 E-score.
With AGGTGGGA, the binding signal was -0.0993 E-score.
The result for CAGCGCTG reads -0.169 E-score; that for GCACACAA, -0.102 E-score.
CCGTCCCC: the binding signal is -0.468 E-score.
For CTATGAGC, the binding signal is -0.0858 E-score.
Take GGCGGGCA: the binding signal was -0.334 E-score.
Take CAGAAGCG: the binding signal was -0.142 E-score.
On to AGGGCCAC, for which the binding signal is -0.329 E-score.
For CAGGACGG, the binding signal was -0.164 E-score.
Sequence CGCACTTA returned a binding signal of 0.0626 E-score.
GTATCTTA: the binding signal turned out to be 0.179 E-score.
Regarding TCCTATAA, the binding signal amounted to 0.232 E-score.
To AAGCAAGC belongs -0.178 E-score.
The result for AAGCCGGG reads -0.213 E-score; that for CCTAAACC, -0.152 E-score; that for ATGTCTAG, 0.112 E-score.
In the case of CTGGGCCC, the binding signal is -0.306 E-score.
CCAGTTAG: the binding signal is 0.049 E-score.
As to CTACAACC, the binding signal is 0.119 E-score.
Sequence CTAGAAGA gave a binding signal of 0.0371 E-score.
As to GTGCTAAA, the binding signal was found to be 0.117 E-score.
Take CTATCGTA: the binding signal came out at 0.335 E-score.
Regarding ACTACAAA, the binding signal was 0.251 E-score.
GTTAGACA came in with a binding signal of 0.149 E-score.
CCGGTCAC: the binding signal was -0.153 E-score.
With ATGAGAGA, the binding signal was -0.0267 E-score.
Sequence AAAAGCTG gave a binding signal of 0.115 E-score.
As to ACCTTGCG, the binding signal is -0.00332 E-score.
Regarding ACAGTACC, the binding signal turned out to be 0.159 E-score.
The result for ACGAAACG reads 0.0357 E-score; that for AGGCATCA, -0.00485 E-score.
Regarding CCAACACC, the binding signal was -0.165 E-score.
AGACAACA: the binding signal is -0.167 E-score.
As to GTACTATA, the binding signal turned out to be 0.444 E-score.
In the case of ACACTCGT, the binding signal is 0.192 E-score.
ATCCGGAA returned a binding signal of 0.0859 E-score.
To GTCACAAA belongs 0.0126 E-score; to GAACGATC, 0.128 E-score.
Take CCCGAACG: the binding signal is -0.135 E-score.
Turning to ATGACCAA, the binding signal amounted to 0.000102 E-score.
Regarding CTATCAGA, the binding signal was 0.252 E-score.
For ACGCACCC, the binding signal was -0.221 E-score.
The result for CCACACAC reads -0.0245 E-score.
CTAACAAA registered a binding signal of 0.128 E-score.
AGCGTCGA: the binding signal is -0.0241 E-score.
Turning to GAGGCTAA, the binding signal was -0.0664 E-score.
AAGATAGG displayed a binding signal of 0.0773 E-score.
The result for TATCGGCA reads -0.145 E-score.
Consider AGAATGCC, for which the binding signal was -0.0218 E-score.
Take CGATCCTA: the binding signal was 0.144 E-score.
As to CCTTAGTA, the binding signal came out at 0.0464 E-score.
Turning to GTTCATTA, the binding signal is -0.0238 E-score.
GAGTAGCA came in with a binding signal of 0.067 E-score.
The sequence ATTACATG gave a binding signal of 0.233 E-score.
The result for AAGGCGCT reads -0.0571 E-score; that for AGTTGAGA, -0.000301 E-score; that for GCAAGCCA, -0.176 E-score.
To CCGAGATA belongs 0.056 E-score; to TGTGACAA, -0.0757 E-score.
CTTTCCTC: the binding signal is -0.172 E-score.
In the case of CCACAGTC, the binding signal is -0.277 E-score.
The sequence GAACTTTA had a binding signal of 0.269 E-score.
As to CTACGTAA, the binding signal came to 0.0899 E-score.
In the case of CGGACTGC, the binding signal is -0.131 E-score.
Take CCCCCGTA: the binding signal was -0.202 E-score.
The result for ATAGTATC reads 0.321 E-score; that for TCGACCGA, -0.203 E-score.
Sequence CTATCATC yielded a binding signal of 0.2 E-score.
Consider AGGTAGGG, for which the binding signal is -0.0356 E-score.
Turning to CCTGTCCA, the binding signal was -0.0803 E-score.
The sequence CTTACGAC had a binding signal of 0.101 E-score.
In the case of AAGATTTG, the binding signal was 0.0702 E-score.
For the sequence CCGCTCCG, the binding signal is -0.212 E-score.
CCATTGCC: the binding signal was -0.26 E-score.
On to CTATTAGC, for which the binding signal worked out at 0.204 E-score.
Take GCATAGAC: the binding signal is -0.0346 E-score.
Sequence ATAATTAA registered a binding signal of 0.29 E-score.
As to CCGAGGAG, the binding signal was -0.22 E-score.
With GAGAATCC, the binding signal is -0.0985 E-score.
To AGAAAACA belongs 0.0334 E-score.
For the sequence CATCTTGG, the binding signal was -0.102 E-score.
Regarding AGACGGCA, the binding signal is -0.129 E-score.
To ACCGAGAA belongs -0.0195 E-score.
The sequence ACTACATA returned a binding signal of 0.326 E-score.
As to CTATGGTC, the binding signal was -0.0229 E-score.
GTTTCGTA returned a binding signal of 0.236 E-score.
On to GACATCGC, for which the binding signal was -0.124 E-score.
For CCATCGCA, the binding signal is -0.0675 E-score.
Sequence GTTATTAA gave a binding signal of 0.296 E-score.
In turn, AGAGATCG gave a binding signal of 0.0154 E-score.
To GACCTCAC belongs -0.136 E-score; to CGAGTTCC, -0.139 E-score.
In the case of ACTATGTA, the binding signal was determined as 0.316 E-score.
In turn, AATCGTCG came in with a binding signal of 0.0964 E-score.
To GCGTCGAA belongs -0.075 E-score; to AACTACTG, 0.436 E-score.
The sequence AAGTCGTC yielded a binding signal of 0.0947 E-score.
